# Data published in PubChem BioAssay AID1347165 (National Center for Advancing Translational Sciences (NCATS), 2019).
# Among all 220,000 compounds or so, about 5,700 (2.6%) were called active. The inconclusive results got no clear call from the source; some entries with a clear call stand among them for comparison. Calls come from the whole dose curve; as a rule, active = well fitted inhibition curve with a large enough effect; inconclusive = small, poorly fitted or top-dose-only effect; inactive = no such curve, though single readings can be large or run the other way. Potencies of inconclusive entries are doubtful fits and often do not repeat.
# Biological target: Lysine-specific demethylase 5B (Homo sapiens) (UniProt Q9UGL1)
# Assay: Primary screen for KDM5B Histone Demethylases FDH-coupled qHTS; note: nearly all actives have a fitted effect of over 70% in size; for activity change, negative = inhibition: 0% is about no effect
# Details: FDH-coupled NADH fluorescence (FDH is formaldehyde dehydrogenase); activity change, negative = inhibition: at 57.7 µM (top of the series) unless noted
# How it was run: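 Here, H3K4me3 peptide (12.5 µM in substrate mix) is demethylated by KDM5BΔAP, 200 nM final, after 10 min compound exposure. Formaldehyde product is coupled through FDH (0.25 U/mL in mix) to NADH fluorescence; 30-min ΔRFU feeds dose-response curves.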
# Potency is the fitted concentration of half-maximal effect; tags give direction and shape of the fitted curve.
# UniProt Q9UGL1, sequence (Q9UGL1 whole entry, looked up): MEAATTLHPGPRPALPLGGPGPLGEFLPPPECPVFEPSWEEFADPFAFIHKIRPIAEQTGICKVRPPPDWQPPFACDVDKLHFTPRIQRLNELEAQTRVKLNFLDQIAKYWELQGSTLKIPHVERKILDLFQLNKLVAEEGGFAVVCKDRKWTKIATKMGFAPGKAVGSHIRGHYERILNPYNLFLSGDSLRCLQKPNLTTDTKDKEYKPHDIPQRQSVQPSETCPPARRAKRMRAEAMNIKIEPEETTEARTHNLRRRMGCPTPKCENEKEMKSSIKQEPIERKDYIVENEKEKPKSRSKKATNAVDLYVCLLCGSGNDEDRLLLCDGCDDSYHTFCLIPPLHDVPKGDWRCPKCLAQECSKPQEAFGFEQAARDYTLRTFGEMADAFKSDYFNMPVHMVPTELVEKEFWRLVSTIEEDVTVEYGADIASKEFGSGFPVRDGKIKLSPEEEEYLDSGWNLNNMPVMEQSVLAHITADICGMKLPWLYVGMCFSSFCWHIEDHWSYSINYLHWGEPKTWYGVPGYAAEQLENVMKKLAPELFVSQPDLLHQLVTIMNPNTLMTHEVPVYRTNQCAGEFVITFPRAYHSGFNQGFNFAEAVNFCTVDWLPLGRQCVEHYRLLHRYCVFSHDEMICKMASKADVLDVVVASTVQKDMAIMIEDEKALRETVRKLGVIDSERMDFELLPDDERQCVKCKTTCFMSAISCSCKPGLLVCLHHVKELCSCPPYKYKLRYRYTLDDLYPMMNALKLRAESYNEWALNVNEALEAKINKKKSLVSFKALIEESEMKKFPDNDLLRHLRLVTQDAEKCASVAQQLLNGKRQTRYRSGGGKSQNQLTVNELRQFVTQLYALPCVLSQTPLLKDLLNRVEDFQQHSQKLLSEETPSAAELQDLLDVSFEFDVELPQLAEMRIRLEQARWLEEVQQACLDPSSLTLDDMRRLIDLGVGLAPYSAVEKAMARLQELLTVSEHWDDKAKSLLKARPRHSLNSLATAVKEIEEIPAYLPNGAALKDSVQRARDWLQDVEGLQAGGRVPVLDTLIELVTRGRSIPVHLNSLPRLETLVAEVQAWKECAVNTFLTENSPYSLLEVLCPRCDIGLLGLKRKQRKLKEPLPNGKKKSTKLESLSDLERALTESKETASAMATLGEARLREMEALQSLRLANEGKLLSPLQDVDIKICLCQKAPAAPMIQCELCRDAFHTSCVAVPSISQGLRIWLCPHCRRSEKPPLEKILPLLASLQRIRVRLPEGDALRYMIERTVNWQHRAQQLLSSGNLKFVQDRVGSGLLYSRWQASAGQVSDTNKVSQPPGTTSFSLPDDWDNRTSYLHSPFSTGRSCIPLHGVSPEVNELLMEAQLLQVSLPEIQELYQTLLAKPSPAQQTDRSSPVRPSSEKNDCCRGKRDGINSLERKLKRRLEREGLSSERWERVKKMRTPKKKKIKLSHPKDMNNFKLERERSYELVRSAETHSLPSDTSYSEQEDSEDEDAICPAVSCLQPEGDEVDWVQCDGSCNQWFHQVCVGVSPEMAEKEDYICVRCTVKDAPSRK
SMILES,"activity change, negative = inhibition",Potency
CCc1nc(C)c(C(=O)N[C@H]2COC[C@H]2Cc2cc(C)no2)s1,inactive: 0.703%,–
COc1cccc(/C=N/NC(=S)NCc2ccco2)c1OC,–,"inconclusive: 31.6 µM [inhibitor, single point]"
CCn1ncc(N2CCC(NC(=O)C(C)C)CC2)cc1=O,inactive: -1.22%,–
Cc1ccc(-c2cnn3c(N4CCN(CCO)CC4)cc(C)nc23)cc1,inactive: 6.52%,–
CC1=C(c2ccc(C)c(C)c2)S(=O)(=O)N(CC(=O)NCc2ccc3c(c2)OCO3)C1=O,inactive: -8.49%,–
COc1ccc(C(=O)CSc2nnc(-c3cc4cc(Cl)ccc4o3)n2C)cc1,inactive: -1.61%,–
CN(C)c1ccc(CN2CCn3c(nn(-c4ccc([N+](=O)[O-])cc4)c3=O)C2)cc1,–,"inconclusive: 31.6 µM [inhibitor, partial curve, poor fit]"
COC(=O)c1ccc2oc(=O)c(S(=O)(=O)c3ccc(F)cc3)cc2c1,inactive: 18.7%,–
Oc1c(Br)cc(Br)cc1C=Nc1cccnc1,–,"inconclusive: 22.4 µM [inhibitor, single point]"
CCOc1ccc(CN2C(=O)c3ccccc3Sc3ccc(C(=O)NCCCN4CCOCC4)cc32)cc1,–,"inconclusive: 15.8 µM [inhibitor, partial curve, poor fit]"
N#Cc1ccc(CN2CCc3cc(S(=O)(=O)N4CCCCC4)ccc32)c(F)c1,–,"inconclusive: 39.8 µM [inhibitor, single point]"
COCCNC(=O)c1nc(-c2ccc(OC)cc2)c2ccccn12,–,active: 89.1 µM
Cc1ccc(Cl)cc1N1CCN(C(=O)CN(C)c2nnc(N3CCCC3=O)s2)CC1,inactive: 13.9%,–
Oc1c(Cl)cc(Cl)cc1C=Nc1cccc(C(F)(F)F)c1,inactive: 2.98%,–
COc1ccc(-n2cc3c(c2-c2ccccc2F)c(=O)n(C)c(=O)n3C)cc1,–,"inconclusive: 35.5 µM [inhibitor, partial curve, poor fit]"
O=C(c1ccc2cccc(F)c2n1)N1CCOc2ccc(Cl)cc2C1,inactive: 0.386%,–
O=C1COCC2(CN1)CN(c1ccc(Oc3ccccc3)cc1)C2,–,"inconclusive: 17.8 µM [inhibitor, partial curve, poor fit]"
C[S+](=O)([O-])Nc1cccc(Nc2cnc3ccc(-c4ccccc4)nn23)c1,inactive: -24.8% [at 86.2 µM],–
O=c1cc(-c2ccccc2)c2ccc(OC/C=C/c3ccccc3)cc2o1,–,"inconclusive: 12.6 µM [inhibitor, partial curve, poor fit]"
Cc1cccc(NC(=O)CCn2nc(C)c3c(C)n(-c4ccccc4)nc3c2=O)c1C,–,"inconclusive: 2 µM [inhibitor, full curve, poor fit]"
Cc1ccc(NC(=O)CSc2nncn3c2cc2sccc23)cc1F,–,"inconclusive: 39.8 µM [inhibitor, single point]"
CCc1ccc(-c2csc(Nc3cccc(C)n3)n2)cc1,inactive: -6.07%,–

SMILES,"activity change, negative = inhibition",Potency
CN1C(=O)CC(C(=O)O)C12CCN(Cc1cnc3c(C(=O)O)cnn3c1)CC2 (stereo not drawn),–,"inconclusive: 20 µM [inhibitor, partial curve, poor fit]"
CCn1cnnc1-c1nn(C)c2c1CN(C(=O)c1n[nH]c3c1CCCCCC3)CC2,–,"inconclusive: 15.8 µM [inhibitor, single point]"
O=C1Nc2cc(C(=O)N3CCN(c4ccccc4)CC3)ccc2N2CCCC12 (stereo not drawn),–,"inconclusive: 14.1 µM [inhibitor, partial curve, poor fit]"
Cc1ccc(-n2c(=O)c3c(c4cc(C)ccc4n3C)n(CC(=O)NCC3CCCO3)c2=O)cc1 (stereo not drawn),–,"inconclusive: 2.24 µM [inhibitor, partial curve, poor fit]"
CCN(CC)C(=O)C1=C(C)N=C2SC=C(CC(=O)NCc3ccco3)N2C1c1ccccc1F (stereo not drawn),–,"inconclusive: 14.1 µM [inhibitor, partial curve]"
Cn1cc(CC(=O)NCc2ccc(F)cc2)c2ccccc21,inactive: 4.5%,–
Cc1ccc(C(=O)NC(O)C(=O)c2ccc(Cl)cc2)cc1 (stereo not drawn),inactive: 10%,–
Fc1ccc(-c2nc3c4c(-c5ccccc5)c(-c5ccccc5)oc4ncn3n2)cc1,–,"inconclusive: 35.5 µM [inhibitor, partial curve, poor fit]"
CCC(Oc1ccccc1)C(=O)N1CCN(Cc2cc(=O)n3nc(-c4cccc(C)c4)sc3n2)CC1 (stereo not drawn),–,"inconclusive: 4.47 µM [inhibitor, partial curve, poor fit]"
Cc1cc(N2CCN(C)CC2)nc2ccc(NC(=O)Nc3ccc(F)cc3F)cc12,–,"inconclusive: 3.16 µM [inhibitor, full curve, poor fit]"
CCOc1ccc(C(C)(C)CC)cc1-c1csc(N)n1,–,"inconclusive: 22.4 µM [inhibitor, partial curve, poor fit]"
COC(=O)[C@@H]1Cc2c([nH]c3ccccc23)[C@H]2C[C@H](NCCO)C[C@@H](c3ccccc3)N21,–,"inconclusive: 28.2 µM [inhibitor, partial curve, poor fit]"
COc1ccc(/C=N/N(CCC(=O)NC(C)(C)C)C2=NS(=O)(=O)c3ccccc32)cc1,–,"inconclusive: 39.8 µM [inhibitor, single point]"
O=C1C(c2ccccc2)CC2(CCN(c3cnccn3)CC2)CN1C1CC1 (stereo not drawn),–,"inconclusive: 31.6 µM [inhibitor, partial curve, poor fit]"
Cc1nc(COc2ccccc2C(=O)Nc2nc(-c3ccccc3)cs2)no1,inactive: 9.56%,–
COc1ccc(Nc2ccc3cc(S(=O)(=O)N4CCCC4)ccc3n2)cc1OC,–,"inconclusive: 39.8 µM [inhibitor, single point]"
N#Cc1nc(-c2ccccc2F)oc1NCCCN1CCOCC1,–,"inconclusive: 28.2 µM [inhibitor, partial curve, poor fit]"
COc1ccc(C)cc1Nc1nc2ccccc2nc1NS(=O)(=O)c1ccc(Cl)cc1,inactive: 2.99%,–
COc1ccc(CNc2ncnc3c2cnn3-c2ccc(Cl)cc2)cc1,inconclusive: -40% [inhibitor],–
CC(NC(=O)CCCN1C(=O)CCn2nc(-c3cn(C)c4ccccc34)cc21)c1ccccc1 (stereo not drawn),–,"inconclusive: 28.2 µM [inhibitor, single point]"
O=C(Cc1ccccc1Cl)N1CCCN(c2cc(-c3ccccc3)[nH]n2)CC1,–,"inconclusive: 14.1 µM [inhibitor, partial curve, poor fit]"
